Test system: grow-finish pigs
Test: Fifth study: growth performance of grow-finish pigs fed HLAD, LA or BMD
Conditions: all treatment diets; 86 to 258 lbs
Protocol: A trial was conducted to evaluate the effect of hydrolyzed lauric acid distillate (HLAD) on growth performance of grow-finish pigs and to evaluate the effectiveness of atypical pen conditions for development of a challenge model. A total of 120 pigs (initial BW: 86 lbs and final BW: 258 lbs) were allotted to one of 6 dietary treatments (10 replicates consisting of five replicates of barrows and five replicates of gilts per treatment with two pigs per replicate). The treatment diets were a 1) control, 2) antibiotic bacitracin methylene disalicylate (BMD), 3) lauric acid (LA) at 0.1%, 4) HLAD at 0.1%, 5) HLAD at 0.2%, and 6) HLAD at 0.4%. Feed intakes and body weights were measured at the end of each of three feeding phase. A challenge of having two pigs per pen along with housing in a dirty room (the room was not cleaned after the previous study was concluded) was used in this trial to see if this could reduce the growth of pigs. The three feeding phases were approximately from 86 lbs to 127 lbs, 127 to 199 lbs, and 199 lbs to 258 lbs. Overall performance (ADG, ADFI, Feed efficiency) and BW at the end of any phase were not affected by diet.

| Molecule | Overall performance (ADG, ADFI, Feed efficiency) and BW at the end of any phase |
| --- | --- |
| bacitracin methylene disalicylate [BMD] | not affected |
| CCCCCCCCCCCC(=O)O [LA, lauric acid] | not affected |
